These results are taken from PMC10501182 (Protein & Cell, 2023).

For one test, the target named is SPT5 (human, UniProt O00267). Briefly: cryo-EM structure; INTAC-PEC assembled from purified human INTAC, NELF, DSIF, S. scrofa Pol II and a DNA-RNA scaffold; gradient fixation (GraFix); map at 4.2 Å, subcomplexes at 3.5-3.8 Å by focused refinement; earlier structures of INTAC and PEC fitted into the maps. The note with it: both partners purified.
A further test addresses T1, INTS9 (human, UniProt Q9NV88).
T1 construct: Integrator complex subunit 9 (INTS9), human; source: subunit of purified human INTAC (Zheng et al., 2020)
The test is described as above. To be noted: both partners purified.

B1: INTS11 (enzyme)
chain: not shown
notes: Integrator complex subunit 11 (INTS11), human; RNA endonuclease; source: subunit of purified human INTAC (Zheng et al., 2020)
Consider B1, for which the binding result in the test with SPT5 and with INTS9 was “binds” throughout.
